Assay results from PubChem BioAssay AID504339 (National Center for Advancing Translational Sciences (NCATS), 2011).
Out of some 390,000 compounds screened, about 17,000 (4.4%) were called active. The shares of active, inactive and inconclusive entries below differ from those in the screen. Calls come from the whole dose curve; as a rule, active = well fitted inhibition curve with a large enough effect; inconclusive = small, poorly fitted or top-dose-only effect; inactive = no such curve, though single readings can be large or run the other way. A potency beside an inconclusive call is a rough fit, not a confirmed value.

The compounds below were run against Lysine-specific demethylase 4A (Homo sapiens) (UniProt O75164) (assay: qHTS Assay for Inhibitors of JMJD2A-Tudor Domain). Conditions: AlphaScreen JMJD2A-Tudor / H3K4me3 peptide binding; activity change, negative = inhibition: at 114 µM (top of the series).
% is set by controls: 0 for no effect and ±100 for the full control effect; potency is the fitted concentration of half-maximal effect; tags give direction and shape of the fitted curve.
Note: nearly all actives have a fitted effect of over 50% in size.

Chain of UniProt O75164 (O75164 whole entry, looked up, the tested form may be a part): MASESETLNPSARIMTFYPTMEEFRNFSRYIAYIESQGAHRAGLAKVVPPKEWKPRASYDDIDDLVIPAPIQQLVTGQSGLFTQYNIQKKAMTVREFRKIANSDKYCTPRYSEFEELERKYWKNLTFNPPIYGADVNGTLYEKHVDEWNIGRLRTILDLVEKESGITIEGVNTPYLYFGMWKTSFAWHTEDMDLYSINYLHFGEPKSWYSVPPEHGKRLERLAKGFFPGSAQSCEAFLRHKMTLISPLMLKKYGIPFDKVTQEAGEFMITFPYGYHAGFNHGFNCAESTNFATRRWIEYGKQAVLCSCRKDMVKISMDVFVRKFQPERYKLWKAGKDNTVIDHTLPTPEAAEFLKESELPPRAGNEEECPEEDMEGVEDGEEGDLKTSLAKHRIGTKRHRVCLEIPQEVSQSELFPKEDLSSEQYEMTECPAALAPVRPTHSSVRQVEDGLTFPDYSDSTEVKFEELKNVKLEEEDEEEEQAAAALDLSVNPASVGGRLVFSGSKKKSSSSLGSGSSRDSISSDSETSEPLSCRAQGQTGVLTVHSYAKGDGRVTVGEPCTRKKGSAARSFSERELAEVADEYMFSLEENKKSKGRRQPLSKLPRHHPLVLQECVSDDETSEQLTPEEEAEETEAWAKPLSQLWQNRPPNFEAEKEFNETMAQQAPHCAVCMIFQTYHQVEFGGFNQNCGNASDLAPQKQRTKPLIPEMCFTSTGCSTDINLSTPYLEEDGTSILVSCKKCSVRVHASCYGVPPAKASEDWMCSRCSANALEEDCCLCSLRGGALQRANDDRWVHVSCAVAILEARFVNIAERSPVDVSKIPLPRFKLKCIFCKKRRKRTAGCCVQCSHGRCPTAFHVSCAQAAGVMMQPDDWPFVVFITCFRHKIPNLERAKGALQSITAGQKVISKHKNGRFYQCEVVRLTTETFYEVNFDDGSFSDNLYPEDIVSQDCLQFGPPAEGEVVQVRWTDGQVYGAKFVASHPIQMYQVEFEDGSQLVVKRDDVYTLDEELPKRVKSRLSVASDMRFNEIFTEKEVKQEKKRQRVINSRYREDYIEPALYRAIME

Row | Compound | Potency | activity change, negative = inhibition
1 | CCOC(=O)N1CCN(S(=O)(=O)c2ccc(C(=O)N(CCCN(C)C)c3nc4ccc(CC)cc4s3)cc2)CC1 | inconclusive: 63.1 µM [inhibitor, partial curve, poor fit] | –
2 | COc1cccc(C(=O)NCC(=O)N2CCN(c3ccc(C(F)(F)F)cn3)CC2)c1 | inactive | –
3 | O=C(Cc1cccs1)Nc1nnc(CCc2ccccc2)s1 | inconclusive: 56.2 µM [inhibitor, partial curve] | –
4 | CN1C2=CC=CC=CC2=[N+](C)C12C([N+](=O)[O-])=CC(=[N+]([O-])[O-])C=C2[N+](=O)[O-] (stereo unspecified) | inactive | –
5 | Cc1c(CCC(=O)NCc2ccc(F)cc2)c(=O)oc2cc(O)ccc12 | inactive | –
6 | O=C(/C=C/c1ccco1)Nc1ccccc1C(=O)O | inconclusive: 39.8 µM [inhibitor, single point] | –
7 | Cc1ccccc1OCC(=O)Nc1ccc(C(=O)OCc2cc(=O)n3c(C)csc3n2)cc1 | inactive | –
8 | Cc1ccc2oc(C(=O)Nc3nc(-c4ccc(F)cc4)ns3)c(C)c2c1 | inactive | –
9 | C=CCOC(=O)C(=O)/C=C/c1csc2ccccc12 | inconclusive: 35.5 µM [inhibitor, partial curve] | –
10 | CN(C)c1ccc(N=Nc2ccccc2C(=O)OCC(=O)N(C)C2CCCCC2)cc1 | inconclusive: 79.4 µM [inhibitor, partial curve] | –
11 | O=C1C(Cc2ccccc2)Nc2ncnc(N3CCc4ccccc4C3)c2N1Cc1ccccc1 (stereo unspecified) | inconclusive: 79.4 µM [inhibitor, partial curve] | –
12 | CCCN(CCO)Cc1cccc(Cl)c1 | active: 3.55 µM | –
13 | CCc1cccc(Nc2cc(C)nc3ncnn23)c1 | inconclusive: 12.6 µM [inhibitor, full curve, poor fit] | –
14 | O=[N+]([O-])c1ccc(/C=N/n2c(-c3cccnc3)n[nH]c2=S)cc1 | active: 8.91 µM | –
15 | CCC(C)OC(=O)C1=C(C)NC2=C(C(=O)C(C(=O)OC)C(C)C2)C1c1ccc(N(C)C)cc1 (stereo unspecified) | active: 17.8 µM | –
16 | CCCC1=C(C(=O)OCC)C(c2ccc(N(C)C)cc2)n2ncnc2N1 (stereo unspecified) | inconclusive: 44.7 µM [inhibitor, partial curve] | –
17 | COc1cccc(CN2CCNC(=O)C2CC(=O)NCCCN2CCCC2=O)c1 (stereo unspecified) | inactive | –
18 | S=C(Nc1ccc(Oc2ccccc2)cc1)Nc1cccnc1 | inconclusive: 79.4 µM [inhibitor, partial curve] | –
19 | Cc1cccc(Nc2nc(NCc3ccco3)nc(N3CCOCC3)n2)c1 | inconclusive: 63.1 µM [inhibitor, partial curve, poor fit] | –
20 | CCN(CC)Cc1oc(CO)cc(=O)c1O | inconclusive: 3.98 µM [inhibitor, full curve, poor fit] | –
21 | O=C(Cc1csc2ccccc12)NCc1ccc(F)cc1 | inactive | –
22 | Cc1ccccc1Nc1nnc(-c2ccc(C)c(S(=O)(=O)N3CCN(C)CC3)c2)c2ccccc12 | inactive | –
23 | C[N+]1(CCOc2ccc([N+](=O)[O-])cc2)CCOCC1 | active: 56.2 µM | –

Row | Compound | Potency | activity change, negative = inhibition
24 | C/C(=N\NC(=O)c1cccnc1)c1ccc(-n2ccnc2)cc1 | inconclusive: 89.1 µM [inhibitor, partial curve] | –
25 | CC(OC(=O)c1ccccc1O)C(=O)Nc1ccc(Cl)cn1 (stereo unspecified) | inconclusive: 35.5 µM [inhibitor, single point] | –
26 | CC(C)c1ccc(NC(=O)c2ccc(NS(C)(=O)=O)cc2)cc1 | – | inactive: -6.01% [at 11.4 µM]
27 | Cc1ccc2occ(CC(=O)Nc3nnc(C(C)C)s3)c2c1 | inconclusive: 56.2 µM [inhibitor, single point] | –
28 | CC(C)N(C(=O)[C@H]1C[C@H](CC(=O)NC(C)(C)C)C(=O)N2CCc3c([nH]c4ccc(Cl)cc34)[C@]12C)C(C)C | inconclusive: 22.4 µM [inhibitor, partial curve] | –
29 | CCOc1ccc2oc(C(=O)NCC(c3ccco3)N(C)C)c(C)c2c1 (stereo unspecified) | inactive | –
30 | O=C(COC(=O)c1cn(-c2ccccc2)nc1-c1ccccc1)Nc1ncc(Cl)cc1Cl | inconclusive: 15.8 µM [inhibitor, single point] | –
31 | O=C(O)CCCCCn1c(SCC(=O)c2ccc(O)c(O)c2)nc2ccsc2c1=O | inconclusive: 100 µM [inhibitor, single point] | –
32 | COc1ccc(OC)c(NC(=O)c2csnn2)c1 | inconclusive: 44.7 µM [inhibitor, partial curve] | –
33 | CCOC(=O)C1=C(CSc2nc(CC)c(C)cc2C#N)OC(N)=C(C#N)C1c1ccc(OC)cc1 (stereo unspecified) | active: 31.6 µM | –
34 | CCOc1ccc(C(=O)N[C@H](C(=O)Nc2ccccc2OC)C(C)C)cc1 | inactive | –
35 | Fc1ccccc1OCCn1c(=S)[nH]c2ccccc21 | inconclusive: 79.4 µM [inhibitor, single point] | –
36 | CN(C)CCCN(C(=O)/C=C/c1cccs1)c1nc2c(F)cccc2s1 | inconclusive: 50.1 µM [inhibitor, partial curve] | –
37 | S=c1[nH]nc(CCCc2n[nH]c(=S)o2)o1 | active: 2.82 µM | –
38 | c1ccc(Cn2c(CNc3nc4ccccc4n3CCN3CCCCC3)nc3ccccc32)cc1 | inconclusive: 50.1 µM [inhibitor, partial curve] | –
39 | Cc1ccc2c(c1)cc(CN(Cc1cccs1)C(=O)c1ccco1)c1nnnn12 | active: 28.2 µM | –
40 | CCOc1ccccc1NC(=O)COC(=O)Cc1cccs1 | inactive | –
41 | CCOc1cc(CNc2ccc(O)cc2)cc(Br)c1OCc1ccccc1 | active: 39.8 µM | –
42 | O=C(CCN1C(=O)/C(=C/c2ccccc2Cl)SC1=S)N1CCCC1 | inconclusive: 14.1 µM [inhibitor, full curve] | –
43 | Cn1c(-c2ccc(F)cc2)cnc1SCC(=O)N1CCCCC1 | inactive | –
44 | CN(C(=O)c1ccc(S(=O)(=O)N2CCCCC2)cc1)C1CCS(=O)(=O)C1 (stereo unspecified) | inactive | –
45 | Cc1ccc(-n2c(CCC(=O)O)ccc2-c2cccs2)cc1 | inconclusive: 56.2 µM [inhibitor, partial curve] | –
46 | COc1ccc(CC(=O)NCc2n[nH]c(=S)n2-c2ccccc2)cc1 | inconclusive: 7.08 µM [inhibitor, full curve, poor fit] | –
